# Data taken from PubChem BioAssay AID1347043 (National Center for Advancing Translational Sciences (NCATS), 2019).
# The campaign covered roughly 76,000 compounds. About 1,900 (2.5%) were called active. Inconclusive means that the source gave no clear call. Such entries were picked first, then a sample of the others. The call rests on the fitted dose curve; in most records, active means well fitted inhibition curve with a large enough effect; inconclusive means small, poorly fitted or top-dose-only effect; inactive means flat fitted curve, though single readings scatter. Where the call is inconclusive, the potency comes from a doubtful curve fit.
# Target: Luciferin 4-monooxygenase (Photinus pyralis) (UniProt P08659)
# Assay: Firefly luciferase inhibition profiling of diverse chemical library using quantitative high-throughput screening; further: nearly all actives have a fitted effect of over 65% in size
# Details: purified P. pyralis luciferase, luminescence, biochemical; series mostly up to 115 µM
# How it was run: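 Inhibitors were tested against purified firefly luciferase in a biochemical, low-substrate format (both substrates at 10uM) and luminescence measured with a CCD imager.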
# Potency means the concentration at half of the fitted maximal effect; tags describe the fitted curve by direction and shape.
# Sequence of UniProt P08659 (P08659 whole entry, looked up): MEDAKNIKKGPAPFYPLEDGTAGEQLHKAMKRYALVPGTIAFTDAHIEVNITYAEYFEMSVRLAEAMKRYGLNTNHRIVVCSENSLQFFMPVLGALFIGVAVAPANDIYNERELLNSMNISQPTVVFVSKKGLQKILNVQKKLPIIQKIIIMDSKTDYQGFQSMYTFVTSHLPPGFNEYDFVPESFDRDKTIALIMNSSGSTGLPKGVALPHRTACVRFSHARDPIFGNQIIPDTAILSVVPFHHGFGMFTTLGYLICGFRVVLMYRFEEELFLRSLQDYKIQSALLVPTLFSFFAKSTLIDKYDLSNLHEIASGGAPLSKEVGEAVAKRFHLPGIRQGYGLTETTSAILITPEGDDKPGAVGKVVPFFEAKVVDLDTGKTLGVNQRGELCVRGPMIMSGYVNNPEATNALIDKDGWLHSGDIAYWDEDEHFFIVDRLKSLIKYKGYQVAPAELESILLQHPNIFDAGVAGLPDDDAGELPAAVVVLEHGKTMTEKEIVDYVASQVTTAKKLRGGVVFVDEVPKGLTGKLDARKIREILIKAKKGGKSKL
row,Compound,Potency
1,O=C1c2cnc(-c3ccc(O)c(F)c3)nc2OCCN1c1ccccc1,"inconclusive: 15.8 µM [inhibitor, full curve]"
2,CCn1cc(-c2ccc(Cl)cc2)cc1C(=O)O,"inconclusive: 50.1 µM [inhibitor, partial curve]"
3,CCc1ccc(Cn2nc(C3CC3)nc2-c2cnn(C)c2)cc1,"inconclusive: 44.7 µM [inhibitor, partial curve]"
4,O=c1[nH]c(C2CCCN(Cc3cccs3)C2)nc2ccc(F)cc12 (stereo unspecified),inactive
5,CCC(C)NC(=O)N1CC(Oc2ccccc2-c2nc(-c3ccccc3)no2)C1 (stereo unspecified),"inconclusive: 50.1 µM [inhibitor, partial curve]"
6,Cc1cn2nc(-c3nc(C4CCCN(C(=O)Cc5ccc(F)cc5)C4)no3)cc2c(=O)[nH]1 (stereo unspecified),"inconclusive: 44.7 µM [inhibitor, partial curve]"
7,COc1ccc(-c2cc3nc4c(c(=O)n3[nH]2)CN(C(=O)CCc2ccccc2)CC4)cc1,inactive
8,O=c1cc(-c2cnccn2)oc2c(Nc3cccc(OC(F)(F)F)c3)nccc12,"inconclusive: 63.1 µM [inhibitor, full curve]"
9,Cc1ccc(C2Cn3nnc(C(=O)N4CCC(C(=O)NCCN5CCCC5)CC4)c3CO2)cc1 (stereo unspecified),active: 12.6 µM
10,COCCN1C(=O)c2cccn2CC1CNC(=O)c1cc2ccccc2[nH]1 (stereo unspecified),"inconclusive: 2.24 µM [inhibitor, full curve, poor fit]"
11,COCCNc1cc(-c2noc([C@@H]3CCCN3Cc3ccccn3)n2)ccn1,"inconclusive: 100 µM [inhibitor, partial curve]"
12,COc1ccc(C(=O)Nc2ccc([C@H]3OCC(=O)N(Cc4cccnc4)[C@@H]3CO)cc2)cc1,"inconclusive: 50.1 µM [inhibitor, partial curve, poor fit]"
13,CCCc1nc(C(=O)N2CCN(c3ccccc3Cl)CC2)cs1,"inconclusive: 89.1 µM [inhibitor, single point]"
14,NC(=O)Cc1c[nH]c2ncc(-c3ccc(F)cc3)cc12,"inconclusive: 141 µM [inhibitor, partial curve]"
15,Cc1ccc(-c2cc(C(=O)N3CCCC3c3nncn3C(C)C)[nH]n2)cc1 (stereo unspecified),"inconclusive: 56.2 µM [inhibitor, partial curve, poor fit]"
16,CC(=O)N1CCC(N2CC[C@H](c3nc4ccccc4s3)C2)CC1,"inconclusive: 44.7 µM [inhibitor, partial curve]"
17,O=C(Nc1cnc(-c2cccc(Cl)c2)nc1)C1CCCO1 (stereo unspecified),active: 2.82 µM
18,Cc1cc(C)c(-c2nc3ncccc3[nH]2)[nH]1,"inconclusive: 112 µM [inhibitor, partial curve]"
19,Cc1cc(F)ccc1OC1CN(C(=O)c2ccccn2)C1,active: 50.1 µM
20,O=C(NCC1CN(C(=O)Cc2ccccc2)CC12CN(c1ccccc1)C2)C1CC1 (stereo unspecified),inactive
21,CCC1CN(C(=O)c2ccc3nc(-c4ccccc4)cn3c2)CCN1C(C)C (stereo unspecified),"inconclusive: 79.4 µM [inhibitor, single point]"
22,CN(C)c1nccnc1OC1CCN(C(=O)CCCc2ccccc2)C1 (stereo unspecified),"inconclusive: 44.7 µM [inhibitor, partial curve]"

row,Compound,Potency
1,O=C1CC2(CCN(Cc3cccnc3)CC2)Oc2ccccc21,inactive
2,CN(C)c1ccc(-c2cc3c(ccn3C)c(C(=O)NCc3cccnc3)n2)cc1,"inconclusive: 22.4 µM [inhibitor, full curve]"
3,CN(Cc1ccccc1)C(=O)c1cccc2c1CCN2C(=O)Nc1ccccc1,active: 0.794 µM
4,Cc1ccc(-c2cc3c(=O)n(CCNC(=O)c4cc(C5CC5)[nH]n4)ccn3n2)c(C)c1,active: 1.26 µM
5,O=C(c1ccoc1)N1CCC(Oc2cccnc2)C1 (stereo unspecified),inactive
6,COc1ccc(C(=O)NCCC2CCN(C(=O)Nc3ccc(C)cc3)CC2)cc1,"inconclusive: 12.6 µM [inhibitor, full curve]"
7,COc1cccc(CC(=O)NCCn2ccn3nc(-c4cccc(OC)c4)cc3c2=O)c1,"inconclusive: 28.2 µM [inhibitor, partial curve]"
8,COc1ccccc1-n1cc(C(=O)N(C)Cc2noc3c2CCCC3)cn1,"inconclusive: 31.6 µM [inhibitor, partial curve]"
9,Cc1cccc(CC(=O)N2CCCC(n3cc(-c4nc(-c5ccccc5)no4)nn3)C2)c1 (stereo unspecified),"inconclusive: 39.8 µM [inhibitor, full curve]"
10,CNc1ccnc(N2CCC(C(=O)O)(n3cnc4ccccc43)CC2)n1,"inconclusive: 44.7 µM [inhibitor, partial curve]"
11,COc1ccc(CNC(=O)Cn2nc(C)c3sc(C(C)C)nc3c2=O)cc1,"inconclusive: 44.7 µM [inhibitor, partial curve]"
12,O=C(c1nnn2c1COC(c1ccc(Cl)cc1)C2)N1CCSCC1 (stereo unspecified),"inconclusive: 7.08 µM [inhibitor, full curve, poor fit]"
13,Cc1ccc2nc(CO[C@H]3CN(Cc4ccc(S(C)(=O)=O)cc4)C[C@H]3F)[nH]c2c1,"inconclusive: 112 µM [inhibitor, partial curve, poor fit]"
14,C=CCN(C)C(=O)[C@@H](C)C1CC[C@@]2(C)Cc3sc(NC(=O)CN(C)C)nc3[C@@H](C)[C@@H]2[C@H]1O (stereo partly specified),active: 12.6 µM
15,FC(F)(F)c1cccc2c(N3CCC4(CCCN4Cc4ncc[nH]4)CC3)ccnc12,"inconclusive: 89.1 µM [inhibitor, partial curve]"
16,CC(C)NC(=O)c1ccc(-c2ccc(N3CCCCC3)nc2)cc1,"inconclusive: 44.7 µM [inhibitor, partial curve]"
17,COc1cccc(NC(=O)CN2C(=O)NC(c3ccccc3Cl)C3=C2COC3=O)c1 (stereo unspecified),"inconclusive: 44.7 µM [inhibitor, partial curve]"
18,CCn1cnnc1CC1CCN(C(=O)C2CCCCC2)C1 (stereo unspecified),"inconclusive: 44.7 µM [inhibitor, partial curve]"
19,CCc1nc(-c2c3n(c(=O)n(Cc4ccc(F)c(F)c4)c2=O)CCCCC3)no1,inactive
20,O=C(NCc1ccc(F)cc1)c1ccnc(-c2nnc3ccc(Nc4ccccc4)nn23)c1,inactive
21,COc1ccc(NC(=O)Nc2ccc(C)n(CC(=O)NCC(C)C)c2=O)cc1,active: 1.58 µM
22,CN(C)C(=O)c1ccn2nccc2c1,"inconclusive: 126 µM [inhibitor, partial curve, poor fit]"

row,Compound,Potency
1,CCC(=O)N1CCC2(CC1)C(OC)C(=O)N2CC1CC1 (stereo unspecified),inactive
2,Cc1cccc(-c2nocc2CCC(=O)O)c1,"inconclusive: 28.2 µM [inhibitor, full curve]"
3,Cc1ccc(CNC(=O)CCC2CCN(S(=O)(=O)c3ccccc3)CC2)cc1,inactive
4,Cc1ccc(N2C(=S)N[C@H]3[C@@H](O)[C@H](O)C[C@@H](C(=O)N4CCCCC4)[C@H]32)cc1,active: 15.8 µM
5,O=C(O)CCn1ncc2cc(OC3CCN(C(=O)CC4CC4)CC3)ccc21,inactive
6,CN1C(=O)CCC2(CNC(=O)c3cccc4nccnc34)CCCC=C12 (stereo unspecified),inactive
7,O=C(Cc1c[nH]c2ncc(-c3ccccc3F)cc12)NCc1cccnc1,"inconclusive: 79.4 µM [inhibitor, partial curve]"
8,Cc1ccc(NC(=O)Nc2cccc(-c3ccc(N4CCOCC4)nn3)c2)cc1F,"inconclusive: 0.501 µM [inhibitor, full curve, poor fit]"
9,C[C@@H]1C(=O)O[C@H]2[C@H]1CC[C@@]1(C)Cc3sc(NC(=O)CCC(=O)O)nc3[C@@H](C)[C@H]21,"inconclusive: 14.1 µM [inhibitor, full curve]"
10,Cc1ccc(-c2cc3c(=O)n(CCNC(=O)c4ccc(F)cc4Cl)ccn3n2)cc1C,"inconclusive: 2.82 µM [inhibitor, full curve]"
11,O=C1NC(C(=O)Nc2ccc3c(c2)OCCO3)Cn2cccc21 (stereo unspecified),"inconclusive: 44.7 µM [inhibitor, partial curve]"
12,c1ccc2sc([C@H]3CCN(C4CCC4)C3)nc2c1,active: 1.58 µM
13,COc1ccc(C2Cn3cnc(C(=O)N4CCC(C(=O)NCc5ccncc5)CC4)c3CO2)cc1 (stereo unspecified),"inconclusive: 39.8 µM [inhibitor, partial curve]"
14,CC(C)(C)CC(=O)NC[C@H]1O[C@H](Cc2cc(-c3ccc(F)cc3)on2)CC[C@@H]1O,"inconclusive: 70.8 µM [inhibitor, partial curve]"
15,COc1ccc(-c2cc(N3CCCN(C(=O)c4ccc5[nH]ccc5c4)CC3)n[nH]2)cc1,"inconclusive: 50.1 µM [inhibitor, partial curve]"
16,CC(NC(=O)C1CCN(C(=O)c2ncn3c2COC(c2ccc(F)cc2)C3)CC1)c1ccccc1 (stereo unspecified),"inconclusive: 44.7 µM [inhibitor, partial curve]"
17,O=C(O)c1cccc(-c2n[nH]c3c2CC(=O)N(c2ccccc2)C3)c1,active: 63.1 µM
18,CN1c2cc(C(=O)Nc3ccc(Br)cc3)ccc2C(=O)N2CCCCCC21 (stereo unspecified),"inconclusive: 15.8 µM [inhibitor, full curve]"
19,CC(=O)Nc1cccc(-c2cnc3n[nH]c(-c4sccc4C)c3n2)c1,"inconclusive: 50.1 µM [inhibitor, partial curve]"
20,COc1cccc(CC(=O)NCCn2ccn3nc(-c4ccc(C)c(C)c4)cc3c2=O)c1,active: 12.6 µM
21,COc1ccccc1CNC[C@H]1Cn2cc(-c3ccc(C)cc3)nc2CO1,"inconclusive: 50.1 µM [inhibitor, partial curve, poor fit]"
22,COCCN1CCCC2(CCN(c3ccc4ccccc4n3)C2)C1=O (stereo unspecified),"inconclusive: 79.4 µM [inhibitor, partial curve]"
